Screen size: about 310,000 compounds; about 2,200 (0.71%) showed an effect of 50% or more. Effects have a minus sign here. This is one part of the list.
target: human ether-à-go-go-related gene (hERG) potassium channel (human, UniProt Q12809); experiment: primary screen, population patch clamp on CHO cells stably expressing hERG
Sequence (Q12809 whole entry, looked up): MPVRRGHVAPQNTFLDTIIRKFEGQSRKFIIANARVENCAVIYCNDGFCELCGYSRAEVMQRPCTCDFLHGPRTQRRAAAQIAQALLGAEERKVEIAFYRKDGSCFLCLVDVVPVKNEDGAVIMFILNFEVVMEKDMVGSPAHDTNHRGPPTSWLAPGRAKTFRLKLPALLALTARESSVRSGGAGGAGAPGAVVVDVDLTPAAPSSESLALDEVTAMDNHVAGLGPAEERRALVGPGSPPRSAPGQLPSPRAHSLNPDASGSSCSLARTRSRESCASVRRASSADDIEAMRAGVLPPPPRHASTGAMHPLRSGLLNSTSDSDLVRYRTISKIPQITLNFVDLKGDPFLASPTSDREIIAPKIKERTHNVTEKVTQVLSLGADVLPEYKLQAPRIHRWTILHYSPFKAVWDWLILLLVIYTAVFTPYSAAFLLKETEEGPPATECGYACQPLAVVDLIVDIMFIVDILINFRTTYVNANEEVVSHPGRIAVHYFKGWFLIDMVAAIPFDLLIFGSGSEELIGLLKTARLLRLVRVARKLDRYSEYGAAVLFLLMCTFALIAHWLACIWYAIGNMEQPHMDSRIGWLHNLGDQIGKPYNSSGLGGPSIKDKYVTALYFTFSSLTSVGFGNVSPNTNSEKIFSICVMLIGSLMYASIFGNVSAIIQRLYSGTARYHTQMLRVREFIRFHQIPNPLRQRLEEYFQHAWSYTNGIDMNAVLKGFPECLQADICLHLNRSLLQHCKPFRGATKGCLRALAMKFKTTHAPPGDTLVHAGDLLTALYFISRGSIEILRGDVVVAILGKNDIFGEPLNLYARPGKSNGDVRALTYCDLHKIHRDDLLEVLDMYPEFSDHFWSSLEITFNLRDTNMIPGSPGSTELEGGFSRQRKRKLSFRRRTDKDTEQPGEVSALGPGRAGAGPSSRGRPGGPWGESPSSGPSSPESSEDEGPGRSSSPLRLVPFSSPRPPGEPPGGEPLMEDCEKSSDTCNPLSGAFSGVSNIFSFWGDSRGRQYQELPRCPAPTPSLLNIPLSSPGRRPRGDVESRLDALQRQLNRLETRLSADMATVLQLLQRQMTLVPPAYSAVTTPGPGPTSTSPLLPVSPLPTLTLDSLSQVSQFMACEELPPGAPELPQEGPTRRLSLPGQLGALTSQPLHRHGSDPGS

SMILES | hERG current change (%, negative = inhibition) at 1uM [%]
CC(C)(C)c1ccccc1OCCCCCNCCO | 10.7
O=C(O)C(=O)O.O=[N+]([O-])c1ccc(CNCCc2ccccc2)cc1 | -15.5
CN(C(=O)CSc1ncnc2sccc12)C1CCCCC1 | 3.66
FC(F)Oc1ccc(NC(=S)NCc2ccco2)cc1Cl | 18.5
COc1ccc(-n2c(Cc3cccn3C)nnc2SCC(=O)Nc2ccc(C)cc2)cc1 | -3.12
O=[N+]([O-])c1ccc(-c2nc(NCc3cccnc3)c3ccccc3n2)cc1 | 13.9
Cc1cc(=O)n2nc(N3CCC(C(=O)NCc4ccccc4F)CC3)sc2n1 | 9.76
COc1cc(/C=N/NC(=O)c2cccc(C(=O)N/N=C/c3ccc(O)c(OC)c3)n2)ccc1O | 13.6
COc1cc(/C=N/NC(=O)c2ccncc2)ccc1OC(=O)c1cc(OC)c(OC)c(OC)c1 | 9.97
O=C(N/N=C\c1cc(Br)cs1)c1ccncc1 | 8.06
CC(C)(C)OC(=O)N1CCN(C(=O)c2ncn(Cc3ccccc3)c2C(=O)N2CCN(C(=O)OC(C)(C)C)CC2)CC1 | 17.2
C[C@H](NC(=O)c1ccco1)C(=O)NC1CCCCCC1 | 0.541
Cc1nnsc1Sc1ccccc1 | 9.07
CCCCC(CC(O)COCC(C)C)C(=O)NN (stereo not shown) | 7.76
COc1cc(SC)ccc1C(=O)Nc1ccc2ncccc2c1 | 3.49
O=C(CN1CCCc2ccccc21)Nc1cc(S(=O)(=O)N2CCCC2)ccc1Cl | -7.37
Cn1cc([N+](=O)[O-])c(C(=O)n2cccn2)n1 | 14.4
Cc1nn(C(C)C(=O)O)c(=O)c2ccccc12 (stereo not shown) | 15.6
CCOC(=O)c1c(NC(=O)CSc2ccccc2C(=O)O)sc(C)c1C | 12.3
O=C(Nc1ccccc1)NC1(C(=O)NCc2ccco2)CCCCC1 | 11.4
O=C1CCc2cc(S(=O)(=O)N3CCCC3C(=O)N3CCN(c4ccccc4)CC3)ccc2N1 (stereo not shown) | -6.02
CCOC(=O)C1CCN(S(=O)(=O)c2ccc(OC)c(OC)c2)CC1 | 6.75
Cc1ccc(C)c(N(C(=O)CNC(=O)c2ccco2)C(C(=O)NC2CCCCC2)c2cccnc2)c1 (stereo not shown) | 11.6

SMILES | hERG current change (%, negative = inhibition) at 1uM [%]
COc1cc(C#N)ccc1OCC(=O)N1CCc2ccccc2C1 | -23.2
Cn1cc2c(=O)n(/N=C/c3ccccc3)cnc2n1 | -0.636
NS(=O)(=O)c1ccc2nc(NC(=O)c3ccncc3)sc2c1 | 12
CC(C)C(C(=O)Nc1cccnc1)N1C(=O)c2ccccc2C1=O (stereo not shown) | -2.47
N#C/C(=C\c1ccc(Cl)cc1)C(=O)Nc1cccnc1 | 11.9
CCOc1ccc(Nc2nc(N)c([N+](=O)[O-])c(N3CCN(C)CC3)n2)cc1 | -6.26
CCOC(=O)N1CCN(C(=O)c2ccc(OCC)c(OCC)c2)CC1 | 6.86
CC1CCCN(CC(=O)N2c3ccccc3Sc3ccccc32)C1 (stereo not shown) | 14.9
Cn1c(SCc2ccccc2F)nc2cccnc21 | 2.5
COc1cc(/C=C/C(=O)O)cc(S(=O)(=O)Nc2ccc3c(c2)CCC3)c1OC | 17.6
Cc1ccc(C(=O)Nc2nnc(-c3ccco3)o2)cc1C | 7.58
Cc1cc(C(C)(C)C)c(O)c(C(C)(C)C)c1 | 17.1
CN(C)c1ccc(/C=N/NC(=O)CN2CCCCC2)cc1Br | 4.32
CC(=O)Nc1ccc(NC(=O)/C(=C/c2ccco2)NC(=O)c2ccccc2)cc1 | 4.86
CCCn1nnc(NC(=O)c2sc3ccccc3c2Cl)n1 | 3.97
CC(=O)c1sc(=S)n(Cc2ccccc2)c1C | 3.98
COCCn1c(-c2ccc(Br)cc2)nc2oc3cc(OC)ccc3c(=O)c2c1=O | 8.33
Cc1ccc(/C=N/N2CCN(c3ccccc3)CC2)cc1 | 4
Cc1cccc(Nc2nnc(SCC(=O)Nc3cccnc3Cl)s2)c1 | 5.55
COc1ccc(-c2cnnc(N/N=C/c3ccc(O)c(O)c3)n2)cc1 | 3.84
Cc1ccc(N(C(=O)Nc2ccccc2)C2=NCC(C)S2)cc1 (stereo not shown) | -12.7
OCC(CO)(CO)NCC(O)CN1c2ccccc2Sc2ccccc21 (stereo not shown) | 2.15
O=C(Nc1ccnn1C1CCN(C(=O)c2ccc(C(F)(F)F)cc2)CC1)C1CC1 | -16.5

SMILES | hERG current change (%, negative = inhibition) at 1uM [%]
Cc1ccc(C2=NN(Cc3nnc(-c4ccccc4)o3)C(=O)SC2)cc1 | 0.116
Cc1ccc(C(=O)COC(=O)CNS(=O)(=O)c2ccc(C)cc2)cc1 | 14.9
Cc1cc(=O)oc2c3c(ccc12)OC/C3=N/N | 16.7
CCN(CC)c1ccc(Nc2cc3n(c(=O)n2)CCc2cc(OC)c(OC)cc2-3)cc1 | -7.6
COc1ccc(/C=C/C(=O)O)cc1S(=O)(=O)N1CCCc2ccccc21 | 14.9
COc1cccc(OCCNS(=O)(=O)c2cccc([N+](=O)[O-])c2)c1 | 10.5
Cc1ccccc1C(=O)N1CCCC(N2CCN(Cc3ccc4c(c3)OCO4)CC2)C1 (stereo not shown) | 4.56
CC(O)(CS(=O)(=O)Cc1cccc(C(F)(F)F)c1)C(=O)Nc1cccc(C(F)(F)F)c1 (stereo not shown) | 0.351
N/C(=N\OC(=O)CCC1CCCC1)c1cccnc1 | 12.1
CC1Sc2ccc(S(=O)(=O)NCCc3ccc(S(N)(=O)=O)cc3)cc2NC1=O (stereo not shown) | 15.2
CCCc1nnc(NC(=O)C2CCCO2)s1 (stereo not shown) | 7.64
Cn1cnc([N+](=O)[O-])c1NC(C)(C)C | 4.03
COc1ccc(C(=O)c2c[nH]cc2-c2ccccc2)cc1 | 22.5
Cn1c(-c2ccccc2)cnc1SCC(=O)N1CCCc2ccccc21 | 5.41
CC1CCC(NC(=O)C2CCC(CNc3c(N4CCCCC4)c(=O)c3=O)CC2)CC1 (stereo not shown) | 7.8
CCCOc1ccc(OCC(=O)c2[nH]c(C)c(C(C)=O)c2C)cc1 | -0.788
N#Cc1cc(C(=O)c2ccccc2OCC(=O)Nc2ccccc2)cn(C2CCCCC2)c1=O | 13.1
Cc1ccn2c(C(=O)CSc3ccc(Cl)cc3)c(C)nc2c1 | 13.5
c1ccc2nc(-c3ccc(N4CCOCC4)cc3)ccc2c1 | 10.1
Cc1nnc(SCc2cc(=O)[nH]c(/N=C(\N)Nc3ccccc3Sc3ccccc3)n2)s1 | 15.5
CCC(=O)c1ccccc1OCCSc1nc(C)cc(=O)[nH]1 | 0.509
CCOc1ccc(S(=O)(=O)N2CCCCCC2)cc1 | -1.39
Cc1nn(CC(=O)Nc2ccc(N(C)C)cc2)c(C)c1[N+](=O)[O-] | 7.34

SMILES | hERG current change (%, negative = inhibition) at 1uM [%]
O=C(NCc1nnc(SCc2ccc(F)cc2)n1-c1ccc(F)cc1)C12CC3CC(CC(C3)C1)C2 | 2.14
CC(=O)Nc1ccc(N2CCCCC2)c(C(=O)Nc2cccc(C)c2)c1 | 5.96
Cc1ccc(COn2nnc3ccc(S(=O)(=O)N4CCOCC4)cc32)cc1 | -4.65
Cc1c(CCC(=O)O)c(=O)oc2cc(OCc3cccc(F)c3)ccc12 | 16.2
CN1C(C(=O)Nc2ccccn2)=C(O)c2sccc2S1(=O)=O | 11.3
O=c1cc(-c2ccccc2)[nH]c2ccccc12 | -2.63
O=c1[nH]cccc1-c1nc2ccccc2n1Cc1cccc(Cl)c1 | 2.24
[O-][Cl+3]([O-])([O-])[O-].c1ccc(C[n+]2ccccc2)cc1 | 11.5
CN(C(=O)Nc1ccc(Cl)cc1Cl)C1CCCC1 | -1.25
Cl.Nc1cc(F)ccc1N1CCCCCC1 | 12.7
COc1ccc(-n2c(=S)[nH]c3cc(C(=O)NC4CCCCC4)ccc3c2=O)c(OC)c1 | 1.85
O=C(Cc1ccc(F)cc1)N1CCC(CC2CC(c3cccc(Br)c3)=NO2)(C(=O)NCC2CCCCC2)CC1 (stereo not shown) | 4.44
COc1ccc(NC(=O)CCN2C(=O)C3CC=C(Cl)CC3C2=O)cc1 (stereo not shown) | 8.21
CCOC(=O)c1c(C)n(C)c2cc(Br)c(C)cc12 | 16.1
O=C(CN1CCOCC1)N1N=C(c2cccs2)CC1c1cccs1 (stereo not shown) | 14.8
CN1CCc2c(C#N)c(N3CCOCC3)nc(NCC3CCCO3)c2C1 (stereo not shown) | 13.3
CCOC(=O)c1cc2cc3ccccc3cc2[nH]1 | -6.48
c1cncc(Nc2nc(-c3ccncc3)cs2)c1 | -5.37
O=S(=O)(Nc1cccc(-n2cnnn2)c1)c1cnc(Cl)c(Cl)c1 | 6.97
O=C(O)CN1CCN(Cc2ccccc2Cl)C1=O | 1.85
CC1CC(C)CN(CCCNS(=O)(=O)c2ccc3c(c2)CCN3C(=O)C2CC2)C1 (stereo not shown) | 8.06
Cc1nc([N+](=O)[O-])c(Sc2nc3ccccc3n2C)n1Cc1ccccc1 | -5.26

Source: publication PMC4336329 (PLoS ONE, 2015)
